We go through 83 compounds from ChEMBL document CHEMBL1201862, “PubChem BioAssay data set” (2004).

Structures are written as SMILES.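 Step 1: Grow cells in 96-well plates. Step 2: Expose to compound for 48 hours at 5 concentrations. Step 3: Interpolate endpoints linearly; if unreached, use highest concentration. GI50: concentration for 50% inhibition of growth.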 Activity calls are given as the source filed them. Cut-off read from the data, not from the text of the source: active = GI50 up to about 1.1 µM and inactive = higher.

The experiment concerns NCI-H322M. Put plainly: NCI tumour cell line growth inhibition, 48 h.
With `CN(O)C(=S)c1ccccc1`, the GI50 was inactive: 7.41 µM. `CN(C)c1ccc(C=c2c3ccccc3n3c2c2ccccc2[n+]3C)cc1`: the GI50 is inactive: 1.77 µM. In the case of `O=[N+]([O-])c1ccc(C2c3c(O)nc(S)nc3Oc3nc(S)nc(O)c32)cc1`, the GI50 was inactive: > 100 µM. In the case of `COC(=O)/C=C1/OC(c2ccc(C)cc2)=C(Cl)C1=O`, the GI50 was inactive: 22.8 µM. On to `Cn1c(S)nc(C(N)=O)c1N`, for which the GI50 was inactive: > 100 µM. For the compound `Cn1c(-c2ccccc2)cc(-c2cccs2)c1-c1ccsc1`, the GI50 was inactive: > 100 µM. The result for `Clc1ccc(/C=N/Nc2nnc3c4ccccc4c4ncccc4c3n2)cc1` reads inactive: > 10 µM; that for `N#CCC1C2CC3C(C2=O)C13` (stereo not drawn), inactive: > 100 µM; that for `CC[N+]1(C)CCC(O)(c2ccc(Cl)c(Cl)c2)C(C(=O)c2ccc(Cl)c(Cl)c2)C1` (stereo not drawn), inactive: > 10 µM. Consider `COc1cccc(C2CC23C(=O)NC(=O)NC3=O)c1` (stereo not drawn), for which the GI50 is inactive: > 100 µM. With `COC(=O)C(/C(=N/NC(N)=O)C(=O)Nc1ccc(C)cc1)c1nc2ccc([N+](=O)[O-])cc2nc1O` (stereo not drawn), the GI50 is inactive: > 100 µM. For `O=C(NNC(=O)c1ccc(Cl)cc1NC(=O)C12CC3CC(CC(C3)C1)C2)c1ccc(Cl)cc1`, the GI50 is inactive: 22.8 µM. Regarding `CCOC(=O)C(Cc1ccc2ccccc2c1)(Cc1ccc2ccccc2c1)C(C)=O`, the GI50 was inactive: > 10 µM. Turning to `CCC1CCc2c(OC)ccc(OCC(=O)O)c2C1=O` (stereo not drawn), the GI50 is inactive: > 100 µM. Under `Cc1nc2n(c1/C=C1/C(=O)Nc3cccc(Cl)c31)CCS2` stands inactive: > 100 µM; under `COCCNc1cncc(C(N)=O)c1`, inactive: > 100 µM; under `CC1=CC[C@H](C[C@H](C#CCCCC2OCCO2)O[Si](C(C)C)(C(C)C)C(C)C)C(=O)CC1`, inactive: > 100 µM. As to `CC(=O)OC1COC(N2C(=O)C(=O)c3ccccc32)C(OC(C)=O)C1OC(C)=O` (stereo not drawn), the GI50 is inactive: > 100 µM. As for `CSC1=NN(c2ccccc2)C(=O)C1=C(SC)SC`, the GI50 is inactive: 22.5 µM. Under `O=S1(=O)OCCOS(=O)(=O)C1(Cl)Cl` stands inactive: > 100 µM; under `COC(=O)C(=O)Cc1nc2ccccc2o1`, inactive: > 100 µM. In the case of `CO/N=[N+](\[O-])NC(C)C`, the GI50 is inactive: > 100 µM.

For the compound `C=C(COC(C)=O)CC(/C=C(\C)CCC=C(C)C)OC(C)=O` (stereo not drawn), the GI50 is inactive: > 100 µM. As to `COc1ccc2c(c1)CN1C(=N2)CSC1c1ccccc1Cl` (stereo not drawn), the GI50 is inactive: 19.6 µM.

With `CCC(C)CN1C(=O)NC(C)(Cc2ccccc2)C1=O` (stereo not drawn), the GI50 was inactive: > 100 µM. With `O=C(O)C1C2c3ccccc3C(c3ccccc32)C1C(=O)NCC1CC1` (stereo not drawn), the GI50 was inactive: 82.8 µM.

Take `CCCCCCCCCCCCN(O)C(=O)c1ccccc1`: the GI50 was inactive: 38.4 µM. In the case of `O=C1N/C(=N/N=C\c2ccccc2)N/C1=C/c1ccc(Cl)cc1`, the GI50 is inactive: 38.6 µM.

As to `C=C(Br)C(C)(Br)CCC(Br)C(C)(C)Cl` (stereo not drawn), the GI50 was inactive: 16.2 µM. Consider `COc1cc(C(Cc2ccccc2)NC(C)=O)oc(=O)c1` (stereo not drawn), for which the GI50 was inactive: > 100 µM. As to `C[C@H]1S[C@H](c2c(F)cccc2F)n2c1nc1ccccc12`, the GI50 was inactive: > 100 µM.

`O=C(Cc1ccccc1)NN1C(=O)C(Cl)C1c1cc(Br)cc(Br)c1O` (stereo not drawn): the GI50 was inactive: 7.48 µM. As to `CSc1cc(-c2cccs2)sc1-c1cc(SC)c(-c2sc(-c3sc(-c4cccs4)cc3SC)cc2SC)s1`, the GI50 is inactive: > 100 µM. As for `CC(C)(CO)CNc1nc(N)nc(Cl)c1N`, the GI50 is inactive: > 100 µM. In the case of `Oc1ncnc2c1nnn2CCCn1nnc2c(O)ncnc21`, the GI50 was inactive: > 100 µM. For the compound `COP(=N[Si](C)(C)C)(OC)OC`, the GI50 is inactive: > 100 µM. As for `COc1ccc(/C=C/C(=O)c2sc(-n3nc(-c4ccccc4)cc3-c3ccccc3)nc2C)cc1`, the GI50 is inactive: > 100 µM. For `CC(=O)OCC1OC(n2c(=S)n(-c3ccc([N+](=O)[O-])cc3)c(=O)c3ccccc32)C(OC(C)=O)C(OC(C)=O)C1OC(C)=O` (stereo not drawn), the GI50 is inactive: 35.7 µM. Regarding `Cc1cc2cc3c(Cl)c(CCCl)c(C)nc3cc2c(Cl)c1CCCl`, the GI50 is inactive: 21.1 µM. On to `COc1ccc2c(c1)-c1c(c3cc(OC)ccc3n1CCCN(C)C)CC2`, for which the GI50 is inactive: 9.68 µM. Consider `CCc1n[nH]c(=O)n1-n1c(C)ccc1C`, for which the GI50 is inactive: > 100 µM. `C(=C\c1nccs1)/c1cccc(/C=C/c2nccs2)n1`: the GI50 is inactive: > 50 µM. Turning to `CCOC(=O)C12CCCC1(O)N(NC(=O)c1cccc(Cl)c1)C(C)=C2C(=O)OC` (stereo not drawn), the GI50 is inactive: > 100 µM. The result for `O=c1[nH]c(N/N=C\C(=N/Nc2nc3ccccc3c(=O)[nH]2)C(O)C(O)C(O)CO)nc2ccccc12` (stereo not drawn) reads inactive: > 100 µM. `CSc1nc(C)c(Br)c(=O)n1C1OC(COC(C)=O)C(OC(C)=O)C(OC(C)=O)C1OC(C)=O` (stereo not drawn): the GI50 is inactive: > 100 µM. As for `Cn1c(COC(=O)NC2CCCCC2)c(COC(=O)NC2CCCCC2)c2ccc3ccccc3c21`, the GI50 was inactive: 87.3 µM. With `COc1cccc2c(Nc3ccc(S(=O)(=O)N=C(N)N)cc3)c3ccc([N+](=O)[O-])cc3nc12`, the GI50 is inactive: 19.8 µM. As to `CN1C(=O)CCC1(O)C1C=CC=CC1` (stereo not drawn), the GI50 was inactive: > 100 µM.

`CCOC(=O)c1sc2nc(SC)nc(Nc3ccc(OC)c(OC)c3)c2c1N`: the GI50 was inactive: 24.9 µM. Take `CCOP(=O)(OCC)/C(C#N)=C/c1[nH]cnc1C`: the GI50 was inactive: > 100 µM. With `Nc1nc(N)c2c(n1)NC(=O)c1c(c3ccccc3n1Cc1ccc(Cl)cc1)C2`, the GI50 is inactive: 21.9 µM.

For the compound `CCOC(=O)C1=C(C(=O)OCC)C2(c3ccccc3)N(O1)c1ccccc1C2(C)C` (stereo not drawn), the GI50 is inactive: 53.3 µM. As to `c1ccc(-c2nc3ccccc3n3c(CN4CCCCC4)nnc23)cc1`, the GI50 was inactive: > 100 µM.

`COc1ccc2c(c1)CN1C(=N2)CSC1c1c(Cl)cccc1[N+](=O)[O-]` (stereo not drawn): the GI50 is inactive: 29.7 µM. Regarding `O=C1C2c3[nH]c4ccccc4c3C3CCC(c4ccccc4)CC3C2C(=O)N1c1ccccc1` (stereo not drawn), the GI50 is inactive: > 100 µM. Under `[N-]=[N+]=Nc1cc(=O)[nH]c2ccccc12` stands inactive: > 100 µM.

With `O=C(O)[C@@H]1NC[C@H]2C(Br)=NO[C@H]21`, the GI50 was inactive: > 100 µM. The result for `O=C(C[n+]1ccccc1)N/N=C(/CCC(=O)N(Cc1ccccc1)Cc1ccccc1)CC(=O)c1ccccc1` reads inactive: > 100 µM. `Cc1cc(C)c2c(c1)C(=O)/C(=C/c1ccccc1C(=O)O)C2`: the GI50 is inactive: 86.9 µM. In the case of `COc1ccc(NC(=O)CC(=O)N/N=C(\C)c2cc3ccccc3oc2=O)cc1`, the GI50 was inactive: > 100 µM. With `Cc1ccc2nc(CN3CCCCC3)cc(=O)n2c1`, the GI50 is inactive: > 100 µM. For `Cc1cc(S(=O)(=O)NC2=Nc3ccccc3C(c3ccccc3)N2)c(S)cc1Cl` (stereo not drawn), the GI50 was inactive: 15.2 µM. Turning to `C=C1C(O)C2OC(=O)C(=C)C2C(OC(=O)/C(C)=C/C)CC2(C)OC2C2OC12` (stereo not drawn), the GI50 is inactive: 11.2 µM. In the case of `CSCC1CC(c2ccc(Cl)cc2)=NO1` (stereo not drawn), the GI50 is inactive: > 100 µM. Take `O=C1OC(c2ccccc2)=N/C1=C\c1cn[nH]n1`: the GI50 is inactive: > 100 µM.

As to `C=COCCCOc1ccccc1`, the GI50 was inactive: > 100 µM. Take `O=C(O)c1ccc(Nc2ccnc3cc(Cl)ccc23)cc1O`: the GI50 is inactive: > 100 µM. Take `CCOC(=O)c1sc2nc(SC)nc3c2c1NC(=O)CN3c1ccc(F)cc1`: the GI50 was inactive: 25 µM.

As to `CCOC(=O)C1C(=O)C=C(c2cc(C)ccc2O)CC1c1cccc(Cl)c1` (stereo not drawn), the GI50 was inactive: 28.2 µM.

Take `CC(C)c1ccc2c(c1)/C(=C1/Nc3ccccc3C1=O)C(=O)N2`: the GI50 was inactive: 6.85 µM. With `COc1ccc2c(c1)nc1n2C(c2c(Cl)cccc2Cl)SC1` (stereo not drawn), the GI50 is inactive: 44.4 µM. The result for `COc1ccc(NC(=O)CC(=O)N2N=C(N(CCC#N)c3ccccc3Cl)CC2c2ccccc2)cc1` (stereo not drawn) reads inactive: > 100 µM.

As to `CC(C)CCCC(C)[C@H]1CCC2[C@@H]3CCC4Cc5nc6c(nc5C[C@]4(C)C3CC[C@@]21C)CC1CC[C@@H]2C(C[C@@H](O)[C@@]3(C)C2C[C@@H]2OC4(CCC(C)CO4)C(C)[C@@H]23)[C@@]1(C)C6` (stereo partly drawn), the GI50 was inactive: > 100 µM. For `C=C1C(=O)OC2/C=C(\C)CC/C=C(\C)CC(OC(=O)/C(=C/CO)CO)[C@@H]12` (stereo partly drawn), the GI50 is inactive: 19.4 µM.

For `CC(C1=CC=C2[C@@H]3CCC4CC(N(C)C)CC[C@]4(C)C3CC[C@]12C)N(C)C=O` (stereo partly drawn), the GI50 is inactive: > 100 µM. `O=C(O)CNc1ccc(C(=O)O)cc1`: the GI50 is inactive: > 100 µM.

For the compound `CC(CC(C)(C)[N+](C)(C)C)[N+](C)(C)C` (stereo not drawn), the GI50 was inactive: > 100 µM. Under `CCC(C)C(NC(=O)C(CCCCN)NC(=O)C(NC(=O)C(CCC(N)=O)NC(=O)C(CCCNC(=N)N)NC(C)=O)C(C)CC)C(=O)NC(Cc1c[nH]c2ccccc12)C(=O)NC(Cc1ccccc1)C(=O)NC(CCC(N)=O)C(=O)NC(CC(N)=O)C(=O)NC(CCCNC(=N)N)C(=O)NC(CCCNC(=N)N)C(=O)NC(CCSC)C(=O)NC(CCCCN)C(=O)NC(Cc1c[nH]c2ccccc12)C(=O)NC(CCCCN)C(=O)NC(CCCCN)C(N)=O` (stereo not drawn) stands inactive: > 50 µM; under `COc1ccc(-c2csc3c2-n2cccc2C3=O)cc1`, active: 0.112 µM.

Consider `O=C1CCC2(c3ccc(F)cc3)Nc3ccccc3N12` (stereo not drawn), for which the GI50 is inactive: > 100 µM. On to `O=C(c1cccs1)N1CCN(C(=O)c2cccs2)C1=S`, for which the GI50 was inactive: 14.8 µM. Under `COc1cc(-c2cc(=O)c3c(O)c(OC)c(OC)c(OC)c3o2)ccc1O` stands inactive: 45 µM. Take `CCN(CC)CCNc1ccc2nnn3c4ccc(OC)cc4c(=O)c1c23`: the GI50 is inactive: 6.47 µM.
